Experimental data: PubChem BioAssay AID743279 (National Center for Advancing Translational Sciences (NCATS), 2014)
Screen size: about 360,000 compounds; about 17,000 (4.7%) were called active. Inconclusive results, whose numbers are uncertain, are shown with a selection of clear calls. Rule as the data show it: active = activity change below about -50%; inconclusive = mostly about -30% to -49%; inactive = weaker than that.

Assay: qHTS for Inhibitors of Inflammasome Signaling: IL-1-beta AlphaLISA Primary Screen
Conditions: THP-1 LPS/ATP IL-1B secretion, 16 h; at 57.5 µM, active compounds read low
In short: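 THP-1 cells pretreated 1 hr with compounds (up to 57.5 uM final), then stimulated with LPS (250 ng/mL final) plus ATP (1.25 mM final); secreted IL-1B measured by AlphaLISA after 16 hr, decreased signal indicating inhibition.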
% is scaled to controls: 0 for no effect and ±100 for the full control effect.

Activity change, active:
O=C(c1ccccc1)c1cccc(NC(=O)c2ccc(Br)o2)c1 -64.3%
CCc1nc2ccc(C(=O)Nc3ccc(OC)c(OC)c3)cn2c1N(CC)Cc1cccc(Br)c1 -57.1%
Nc1c(C(=O)Nc2nc3ccccc3s2)sc2nc(-c3cccs3)ccc12 -114%
CC(C)CC(COCc1ccc(C(F)(F)F)cc1)N1CCN(C(=O)c2ccc(C(F)(F)F)cc2)CCC1=O (configuration not stated) -53.8%
N/C(=N\N=Cc1ccc2c(c1)OCO2)NN=Cc1ccc2c(c1)OCO2 -98.5%
CC(C)(C)c1nnc(NC(=O)CCS(=O)(=O)c2ccccc2)s1 -103%
Cc1ccc(SC(CC(=O)c2ccc(C(C)(C)C)cc2)C(=O)O)cc1 (configuration not stated) -93.8%
CN(C)c1cc(-c2ccc(Br)cc2)oc(=O)c1Cl -50.8%
COC(=O)C1=C(C(=O)OC)SC(=C2C(=S)C(C)(C)N(C(=O)C(C)C)c3ccccc32)S1 -66.1%
Nc1ccc(O)c2c1C(=O)c1ccccc1C2=O -56.9%
CCCCNc1nc(-c2ccccc2)cc(C(F)(F)F)c1C(N)=O -70.4%
NC(=O)c1ccc(N=Cc2ccc([N+](=O)[O-])s2)cc1 -108%
COc1ccc(OC)c(N(C(=O)c2snc(C(N)=O)c2N)C(C(=O)NCc2ccccc2)c2ccc(O)cc2)c1 (configuration not stated) -78.8%

Activity change, inactive:
C#CCOCCOCCOCCNc1nc(N2CCN(C(=O)[C@H](CCCCN)n3cc(CC(C)O)nn3)CC2)nc(N2CCN(C(=O)[C@H](CCCCN)n3cc(CC(C)O)nn3)CC2)n1 (some centres not stated) 4.35%
COc1ccc(CNC2CCCCC2)cc1 -4.21%
Clc1cccc(CNc2ccn3nc(-c4ccc(OCc5ccccc5)cc4)cc3n2)c1 -16.5%
CCCCn1c(SCC(=O)NCc2ccc3c(c2)OCO3)nnc1C(CC)N(C)C (configuration not stated) -4.71%
CCOC(=O)C1=C(CS(=O)(=O)c2ccc(C)c(C)c2)NC(=O)NC1c1ccc(O)cc1 (configuration not stated) -2.33%
COc1ccc(OC)c(NC(=O)c2nc(-c3ccccc3)oc2C)c1 26.2%
COc1cc2c(cc1OC)CN(C(=O)CNS(=O)(=O)c1ccc(C)c(C)c1)CC2 -15.8%
CCN1CCN(c2cc(C)c3cc(NC(=O)c4cccnc4Cl)ccc3n2)CC1 -3.86%
CC1(C)CCC/C(=C\c2ccccc2)C1=O -5.98%
CC(=O)c1ccc(S(=O)(=O)N(C)CCCC(=O)N(C)Cc2c(F)cccc2Cl)cc1 -1.64%
Cc1ccc(C(=O)OCC(=O)Nc2cc(C(C)(C)C)nn2-c2ccccc2)c(O)c1 -22.6%
O=C(CN(Cc1ccccc1)S(=O)(=O)c1ccccc1)NC1CC1 4.44%
COc1cc([C@@H]2c3cc4c(cc3[C@H](O)[C@H]3COC(=O)[C@H]23)OCO4)cc(OC)c1OC 63.5%
CCCNC(=O)c1cc(C2CCCN(C(=O)c3ccc4c(c3)CCO4)C2)on1 (configuration not stated) 25.3%
Cc1ccc(C2(C)NC(=O)N(CC(=O)Nc3ccc(-c4nc5ccc(C)cc5s4)cc3)C2=O)cc1 (configuration not stated) 55.2%
COc1cc(OC)c2c(-c3cccc(-c4ccc(C#N)cc4)c3)cc(=O)oc2c1 57.7%
COC(=O)Cc1c[nH]c2cccc(OCC(O)CN(Cc3ccc([N+](=O)[O-])cc3)C(C)(C)C)c12 (configuration not stated) -7.12%
CN[C@@H](C)C(=O)NC[C@H]1O[C@@H](n2cnc3c(N)ncnc32)[C@H](O)[C@@H]1O 26.5%
CC(=O)c1cccc(-c2ccnc3c2CC(C(=O)Nc2ccc(Cl)c(C(F)(F)F)c2)O3)c1 (configuration not stated) 93.9%
COCCN1C(=O)N(c2cccc(OC)c2)C(=O)C1CC(=O)Nc1ccc(OC)cc1 (configuration not stated) 15.3%
CCN(CC)CCCNC(=O)Cn1cnc2sc(C)c(S(=O)(=O)N3CCN(c4ncccn4)CC3)c2c1=O 18.1%

Activity change, inconclusive:
CSc1ncnc2c1ncn2CCCN1CCN(Cc2cccc3ccccc23)CC1 -41.3%
COc1ccc(C(=O)N2N=C(c3cccc(OC)c3)CC2(O)C(F)(F)F)cc1 (configuration not stated) -32.2%
C=CCn1c(CCNC(=O)c2ccc(Cl)c(Cl)c2)nnc1SCCOc1ccc(OC)cc1 -34.4%
COc1ccc(NC(=O)c2cc3c(-c4ccc(OC)c(OC)c4)nn(C)c3s2)cc1OC -30.6%
CCn1c(SCC(=O)Nc2ccc(OCc3ccccc3)cc2)nnc1-c1ccco1 -35%
COc1ccccc1C(=O)Nc1ccc(Oc2nnc(-c3ccc(C)cc3)c3ccccc23)cc1 -42.7%
O=C(Nc1ccc(S(=O)(=O)NC2CCCCC2)cc1)c1ccc(Br)o1 -42.3%
Cc1ccc(S(=O)(=O)N2CCC(=O)N(CCOC(=O)Nc3ccc(C)c(C)c3)CC2)cc1 -43.4%
O=c1n(Cc2ccccc2F)c2ccccc2n1Cc1ccccc1F -39.3%
CC(C)C(NC(=O)c1ccc(Cl)cc1)C(=O)O (configuration not stated) -36.3%
COc1ccc2c(c1)CC/C(=C/c1ccccn1)C2=O -35.8%
Cc1nc2cc(C(F)(F)F)ccc2n1CCNc1nc(-c2ccc([N+](=O)[O-])c(Cl)c2)cs1 -31.1%
COc1ccc(NC(=O)C2CCN(Cc3cnn(-c4ccccc4)c3-n3cccc3)CC2)cc1OC -35.4%
CC(=O)Nc1nc2ccccc2n1Cc1ccccc1C -47.4%
Cc1ccc(C(=O)Nc2cc(S(=O)(=O)N3CCOCC3)ccc2N2CCCC2)cc1 -31.1%
CCCCn1c(SCC(=O)NCc2ccco2)nnc1-c1ccoc1C -35%
CCC(c1nnnn1-c1c(C)cccc1C)N1CCN(c2ccc(C(F)(F)F)cc2[N+](=O)[O-])CC1 (configuration not stated) -38.5%
Cc1cc(/C=C2/SC(=S)N(c3cccc(C(F)(F)F)c3)C2=O)c(C)n1-c1cccnc1 -37.8%
CCc1ccc(C(C)NC(=S)NCc2ccc(F)cc2)cc1 (configuration not stated) -33.5%
COc1cc2cc(C(=O)NC(C)c3cccc4ccccc34)c(N)nc2cc1OC (configuration not stated) -38.1%
CCOC(=O)C1=C(O)/C(=C/c2cn(CC(=O)N3CCCC3)c3ccccc23)SC1=Nc1ccccc1 -43.2%
O=C(CCCN1C(=O)/C(=C/c2ccccc2Cl)SC1=S)NNC(=O)c1ccncc1 -39.7%
CCCC(=O)c1ccc(N2CCN(C(=O)OCC)CC2)c(F)c1 -33.9%
O=S(=O)(NCc1ccccc1)c1ccc(S(=O)(=O)N(Cc2ccccn2)C2CCCC2)cc1 -48.4%
O=C(CC(=O)c1ccccc1)Nc1ccc([N+](=O)[O-])cc1 -35.4%
O=C(NCc1ccc(F)cc1)c1ccc(CS(=O)(=O)c2ccc(Br)cc2)o1 -39.3%
Nc1ccc2c(c1)-c1ccc(F)cc1C2=O -35.1%
CCCCC(=O)Nc1cccc(-c2nnc(-c3ccccc3)o2)c1 -40.1%
Cc1ccc(-c2nn(CCC(=O)NC(C)C)c(=O)c3ccccc23)cc1 -45.6%
Cc1cccc(-n2cc(CNCCc3nc(C)cc(C)n3)c(-c3cccc(F)c3)n2)c1 -31.8%
O=C(Nc1ccccc1C(=O)Nc1ccc(Cl)cc1)c1cccnc1 -34.9%
Cc1nn(C(C)C(=O)NCCCN2CCCCCC2)c(=O)c2cc3sccc3n12 (configuration not stated) -46%
Cc1ccc(NC(=O)c2nc[nH]c2C(=O)N[C@@H](C)c2ccccc2)cc1 -30.2%
Cc1nc2[nH]c(=O)c3c(n2n1)NC1=C(C(=O)CC(C)(C)C1)C3c1ccccc1 (configuration not stated) -41.5%
COc1nc(N)c(C#N)c(-c2ccc(N(C)CCC#N)cc2)c1C#N -32.3%
CCN1C(=O)C(O)(CC(=O)c2cccc(-n3cccc3)c2)c2ccccc21 (configuration not stated) -32.9%
O=C(Nc1ccc2c(c1)OCO2)C1CC(c2ccccc2Cl)=NO1 (configuration not stated) -43.3%
Nc1nn(S(=O)(=O)c2cccc3nsnc23)cc1-c1ccc(Br)cc1 -41.4%
CCOC(=O)c1nnn(-c2nonc2-n2cccc2)c1CN1CCC(C)CC1 -47%
CCN(CC(=O)NC1CCS(=O)(=O)C1)c1nc(-c2ccccc2)nc2ccccc12 (configuration not stated) -38.8%
C=CCc1ccc(O)c(-c2ccc(O)c(CC=C)c2)c1 -41.8%
CCN(CC)S(=O)(=O)c1ccc(C)c(NC(=O)/C=C/c2cccs2)c1 -37.2%
Cc1ccc(Cl)cc1NC(=O)c1cnn2c1NC(c1ccco1)CC2C(F)(F)F (configuration not stated) -38.3%
CN(C(=O)c1ccccc1C(=O)OCC(=O)c1ccc(F)c(F)c1)C1CCCCC1 -37.4%
COc1cc2c(cc1NC(=O)c1ccc(C(C)(C)C)cc1)CCCC2 -38.7%
CCOC(=O)c1cc(-c2ccccc2)sc1NC(=O)C(C)OC(=O)c1cccc(S(=O)(=O)N(C)C)c1 (configuration not stated) -45.1%
COc1cccc(C(=O)Nc2ccc3nc4n(c(=O)c3c2)CCCC4)c1 -43.7%
OC(COCCOc1ccc(Br)cc1)CN1CCN(Cc2ccccc2)CC1 (configuration not stated) -37.9%
